# The supplement of paper PMC9433436
# ± gives the standard deviation of the averaged measurements. Whole data set: some 4,100 sequences, median “relative kcat/Km (krel) vs genomic leader AAAGAU” near 1.7, cut for the highest 2% near 6.5. The list shows a part of the results, in another mix than the full data.
# Target: T1, E. coli RNase P holoenzyme (M1 P RNA + rnpA protein) (UniProt P0A7Y8)
# T1 sequence: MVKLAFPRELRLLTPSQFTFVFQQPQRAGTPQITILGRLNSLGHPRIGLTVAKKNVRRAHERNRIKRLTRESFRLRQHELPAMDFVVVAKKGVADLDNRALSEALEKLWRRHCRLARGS
# Assay: relative kcat/Km (krel) vs genomic leader AAAGAU (relative (reference leader = 1)); higher = faster RNase P cleavage
# Description: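 HTS-Kin: a pool of ptRNA-Met (21C construct) with all 4096 combinations of 5' leader nucleotides N(-6) to N(-1) was processed in vitro by E. coli RNase P (P RNA + rnpA/C5 protein) under multiple-turnover conditions at 37 C, pH 8, 17.5 mM MgCl2. Residual substrate was Illumina-sequenced at several fractions reacted, and relative kcat/Km (krel) was computed by internal competition kinetics, calibrated to the genomic leader (AAAGAU = 1). The listed hexamer is the varied N(-6)..N(-1) leader (DNA letters), and it sits between a fixed 5' stem-loop flank (GCAUGCACGAAAGUGCGUGCUAUGAA) and the mature tRNA-Met starting GGCUACGUAGCUCAGUUGG. Two technical replicates are averaged.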
# [1] = fraction of substrate reacted: ~9-10% (9.79% repeat 1, 9.1% repeat 2)
# [2] = fraction of substrate reacted: ~13-16% (15.68% repeat 1, 13.17% repeat 2)
# [3] = fraction of substrate reacted: ~26-29% (28.66% repeat 1, 26.4% repeat 2)
Sequence,relative kcat/Km [1],relative kcat/Km [2],relative kcat/Km [3]
TCCCCG,1.54 ± 1.4,0.526 ± 0.42,2.17 ± 0.62
AAAACC,1.57 ± 0.47,1.42 ± 0.68,0.978 ± 0.27
GTTGCG,–,–,0.902 ± 0.56
GCCTGG,–,–,0.776 ± 0.2
AAGATG,–,–,0.939 ± 0.44
ACATTA,1.51 ± 1.3,1.66 ± 0.19,2.74 ± 1.1
CTCAAG,2.69 ± 2,2.93 ± 1.3,4.67 ± 1.1
GTGAGG,–,–,0.834 ± 0.13
CTCTTC,3.63 ± 0.69,4.38 ± 0.62,6.47 ± 2.3
TGTTAT,3.17 ± 1.4,4.69 ± 0.22,–
TATGTC,1.94 ± 0.3,1.75 ± 0.14,2.41 ± 1.1
GCTCCT,2.17 ± 1.1,1.31 ± 0.57,1.49 ± 0.12
ACTGAA,2.28 ± 0.86,1.83 ± 0.063,2.09 ± 0.12
CTGTCT,1.75 ± 0.55,2.12 ± 0.53,2.34 ± 0.71
ACCACG,–,0.663 ± 0.43,1.33 ± 0.36
AATCCT,1.63 ± 0.46,1.9 ± 0.52,2.2 ± 0.7
ACTACC,1.62 ± 1.1,0.947 ± 0.46,1.88 ± 0.055
CAATAG,1.79 ± 0.46,1.58 ± 0.064,2.76 ± 0.48
TTGGAG,–,–,0.381 ± 0.027

Sequence,relative kcat/Km [1],relative kcat/Km [2],relative kcat/Km [3]
GGCCGG,–,–,0.66 ± 0.22
AACTGG,–,–,0.249 ± 0.046
AGACGC,2.54 ± 0.22,2.7 ± 0.34,4.01 ± 1.7
GCCCTT,2.48 ± 0.62,2.23 ± 0.29,4.09 ± 1.9
ACAATG,–,0.703 ± 0.44,2.02 ± 0.15
CGCACG,0.959 ± 0.25,–,1.17 ± 0.018
TATAGA,2.61 ± 0.27,3.82 ± 1.1,5.64 ± 2.4
TACACT,2.89 ± 1.3,4.07 ± 0.56,5.85 ± 2.5
TCCACG,–,1.5 ± 0.77,2.9 ± 0.35
ACACAA,–,1.7 ± 0.61,2.33 ± 0.43
TACTCG,2.29 ± 0.9,2.27 ± 0.61,3.84 ± 1.7
ATGCGA,1.3 ± 0.25,1.14 ± 0.72,1.37 ± 0.057
TGTACT,1.27 ± 0.14,1.61 ± 0.24,3.19 ± 1.3
GTACGT,–,–,1.63 ± 1.3
CTGACT,–,0.128 ± 0.089,0.932 ± 0.62
TCTAAC,2.88 ± 0.9,3.41 ± 0.69,3.99 ± 1.6
TCGCTA,–,1.1 ± 0.44,2.01 ± 0.28
CCCGTC,2.457 ± 0.0044,3.23 ± 1.4,3.92 ± 1.5
CTGCGA,1.16 ± 0.17,0.694 ± 0.59,1.64 ± 0.035

Sequence,relative kcat/Km [1],relative kcat/Km [2],relative kcat/Km [3]
GGGGAT,–,–,1.93 ± 1.9
TCGGGT,–,–,1.52 ± 1
GCTGTA,1.96 ± 0.28,1.45 ± 0.33,1.506 ± 0.011
GTTGCC,1.67 ± 1.3,1.04 ± 0.19,2.17 ± 0.34
GTCCTC,3.46 ± 0.61,4.33 ± 0.75,6.46 ± 3
ACGTTT,2.11 ± 0.72,2.51 ± 0.12,3.26 ± 1.3
CCACCC,2 ± 0.12,1.27 ± 0.51,2.49 ± 0.73
CCTAAC,2.27 ± 0.5,2.19 ± 0.88,3.39 ± 0.99
CTCCTA,1.73 ± 0.61,2.53 ± 0.85,4.44 ± 1.4
TCACTG,–,–,1.24 ± 0.59
GTAAGC,1.54 ± 0.78,2.1 ± 0.22,2.53 ± 0.77
CGAGCG,–,–,0.514 ± 0.44
AGCAAA,2.66 ± 1.7,2.77 ± 0.46,3.99 ± 1.2
TCCTGT,–,–,2.18 ± 1.6
GTTGTA,1.0952 ± 0.00012,0.821 ± 0.1,1.42 ± 0.54
TGTGTC,1.59 ± 1.4,1.59 ± 0.53,1.11 ± 0.067
TGGCGA,0.674 ± 0.028,0.957 ± 0.27,1.62 ± 1
AGTACC,1.76 ± 0.33,2.32 ± 0.69,3.17 ± 0.87
